PubChem BioAssay AID445 (National Center for Advancing Translational Sciences (NCATS), 2006)
Among all 110,000 compounds or so, about 40 (0.04%) were called active. Inconclusive results, whose numbers are uncertain, are shown with a selection of clear calls. Calls follow the shape of the dose curve; as a rule, active = well fitted curve in the direction sought with a large enough effect in the signal ratio (not every such curve was filed as active); inconclusive = small, poorly fitted or top-dose-only effect, or a change in a side signal; inactive = flat fitted curve, though single readings scatter; the % refers to the signal ratio. Where the call is inconclusive, the potency comes from a doubtful curve fit.

Assay: IkB Signaling;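 as to IkBa stabilization activation: 0% = basal untreated cells and 100% = reference inhibitor full response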
Settings: ABC-DLBCL IkBa-CBG/CBR dual luciferase ratio (green luciferase fused to IkBa over red control in OCI-Ly3 lymphoma cells), 4 h; IkBa stabilization activation: at 57.1 µM (top of the series), scaled: untreated 0%, proteasome inhibitor 100% unless noted
Method in brief: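 Curves were fitted separately to fusion (green), unfused (red) and ratio luminescence, then classed by r2, magnitude and activity. Cells: OCI-Ly3, 4 h compound plus doxycycline at 37C; 10 uM MG-132 defined full response.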
Potency is read from the fitted curve at half-maximal effect.

| SMILES | IkBa stabilization activation | Potency |
| --- | --- | --- |
| COc1ccc(-c2nnc(SCC(=O)Nc3ncc(C)s3)n2-c2ccccc2)cc1OC | inactive | – |
| COc1cc(Cl)c(C)cc1NC(=O)CNC(=O)Cn1ccc2ccccc2c1=O | inconclusive: 3.9% [signal inhibitor] | – |
| COc1ccc(Nc2ncnc3c2cnn3-c2cc(Cl)ccc2C)cc1OC | inconclusive: -2.56% [signal inhibitor] | – |
| CCOC(=O)c1ccc(NC(=O)CCCn2nc(C)c3sc4ccccc4c3c2=O)cc1 | inactive | – |
| CC(=O)[C@@H]1CC[C@@H]2[C@@H]3C[C@H](C)C4=CC(=O)CC[C@@]4(C)[C@H]3[C@H](O)C[C@]21C | inconclusive: 9.42% [signal activator] [at 25.6 µM, scaled: untreated 0%, proteasome inhibitor 100%] | – |
| CNc1nc(SCc2ccccc2)nc(N2CCOCC2)n1 | inactive | – |
| CCCc1oc2ccc(NS(=O)(=O)c3ccc(OCC)cc3)cc2c1C(=O)OCC | – | inconclusive: 15.8 µM [signal activator, partial curve] |
| Cc1ccc(C(=O)OC2=C(C(=O)c3ccccc3)N(C)S(=O)(=O)c3ccccc32)cc1 | inconclusive: -5.22% [signal inhibitor] | – |
| O=C(Nc1cccnc1)Nc1ccc(F)c(Cl)c1 | inactive | – |
| COc1ccccc1C(c1nnnn1CS(=O)(=O)c1ccc(C)cc1)N1CCSCC1 (centres undefined) | inconclusive: 1.51% [signal inhibitor] | – |
| CC(=O)OC1=C(C(C)=O)N(Cc2ccccc2)S(=O)(=O)c2ccccc21 | inconclusive: 6.24% [signal inhibitor] | – |
| Cn1c(C(=O)OC(C(=O)NC2CCCC2)c2ccncc2)cc2sccc21 (centres undefined) | inactive | – |
| Cc1cc(NC(=O)c2ccc(F)cc2)ccc1-c1cc2ccccc2oc1=O | inconclusive: 10.7% [signal inhibitor] | – |
| CCCCSc1nnc2[nH]c(=O)cc(C)n12 | inconclusive: 5.53% [signal inhibitor] | – |
| COc1ccc(CC(=O)c2ccccc2C(=O)O)cc1 | inactive | – |
| CCN(CC)S(=O)(=O)c1ccc(NC(=O)c2nn(C)c3c2CSc2ccccc2-3)cc1 | inconclusive: 2.58% [signal inhibitor] | – |
| CCOc1ccc(Nc2nc(N)c(C(=O)c3ccccc3Cl)s2)cc1 | inconclusive: -3.29% [signal inhibitor] | – |
| Fc1ccc(Nc2nc(SCc3cccc(F)c3)nc3ccccc23)cc1 | inconclusive: -0.587% [signal inhibitor] | – |
| CCOC(=O)c1ccc(N2C(=O)c3[nH]nc(-c4ccc(C)cc4)c3C2c2ccc(O)cc2)cc1 (centres undefined) | inconclusive: -4.98% [signal inhibitor] | – |
